Experimental data reported in paper doi:10.1101/2022.08.03.502606 (bioRxiv, 2022).

Biological target: T1, Atto-488-CaMKII^WT / Atto-594-CaMKII^WT (biotinylated CaMKII^WT-AviTag, fluorescently labelled at the … (human, UniProt Q9UQM7 6-478, biotin on the AviTag)); Atto-488 or Atto-594 maleimide dye on the SrtA recognition peptide (CLPETGG) joined to the N-terminus)
T1 construct: CaMKII alpha, human, lacking the first 5 residues, with a 30-residue linker; The two dye forms differ only by the fluorophore and are one molecule here; also called labeled CaMKII^WT; differentially-labeled CaMKII^WT; source: E. coli BL21, purified; biotinylated with BirA and labelled with SrtA in vitro; not shown: His6, N-terminal, cleaved; AviTag (biotinylated), C-terminal, kept; SrtA …
Test: single molecule TIRF colocalization; Atto-488 and Atto-594 labelled CaMKII, 55 nM, activating conditions (150 nM CaM, 1 mM ATP, 2 mM MgCl2, 2 min), 25 mM Tris pH 8, 150 mM KCl, 1 mM TCEP; bound to NeutrAvidin coverslip; stage 37°C
Conditions: both partners purified

binding result: binds
B1: Atto-488 / Atto-594 labelled CaMKII^KD (biotinylated CaMKII^K42RD135N-AviTag, fluorescently labelled at the N-terminus with sortase) (enzyme)
chain: not shown
modifications: biotin on the AviTag; Atto-488 or Atto-594 maleimide dye on the SrtA recognition peptide (CLPETGG) joined to the N-terminus
notes: CaMKII alpha, human, lacking the first 5 residues, with a 30-residue linker; K42R and D135N; The two dye forms are one molecule here; also called differentially labeled CaMKII^KD; source: E. coli BL21, purified; biotinylated with BirA and labelled with SrtA in vitro; not shown: His6, N-terminal, cleaved; AviTag (biotinylated), C-terminal, kept; SrtA recognition peptide (CLPETGG) with Atto-488 or …
